Experimental data published in patent US6677310B1, “Ring-expanded nucleosides and nucleotides” (Nabi, priority 1999, dated 2004).

Tested on: NCI-H322M
Details: for CC50: read-out: LC50, NCI-H322M (Non-Small Cell Lung Cancer), 48 h
Method: The assay is conducted according to the procedure published previously (Monks, A. et al., J. Natl. Cancer Inst. 83,:757-766, 1991). Briefly, cell suspensions that were diluted according to the particular cell type and the expected target cell density (5000-40,000 cells per well based on cell growth characteristics) were added by pipette (100 μl) into 96-well microtiter plates. Inoculates were allowed a preincubation period of 24h at 37° C. for stabilization. Dilutions at twice the intended test concentrations of the test compounds were added at time zero in 100 μl aliquots to the microtiter plate wells. The plates were incubated for 48 h in 5% CO2 atmosphere and 100% humidity. The cells were assayed by using the sulforhodamine B assay (Rubinstein, L. V. et al. J. Natl. Cancer Inst. 82:1113-118, 1990; Skehan, P. et al., J. Natl. Cancer Inst. 82:1107-1112, 1990). The plates were read by a plate reader. The following parameters were calculated from the optical densities:
GI50, concentration of drug that causes 50% growth inhibition; where (T−T0)/(C−T0)×100=50

SMILES: N=c1nc(N)c2ncn([C@@H]3O[C@H](COC(=O)c4ccccc4)[C@@H](OC(=O)c4ccccc4)[C@H]3OC(=O)c3ccccc3)c2c(N)n1 [4,8-Diamino-6H-6-imino-1(2′,3′,5′-tri-O-benzoyl-β-D-ribofuranosyl)imidazo[4,5-e][1,3]diazepine]
- GI50: 8.38 µM
- TGI: 24 µM
- CC50: 62.4 µM

SMILES: N=c1[nH]c(=O)c2ncn([C@@H]3O[C@H](CO)[C@@H](O)[C@H]3O)c2c(=O)[nH]1 [Compound 14-1, 6-Imino-6H-1-β-D-ribofuranosyl-4,5,7,8-tetrahydroimidazo[4,5-e][1,3]diazepine-4,8-dione]
- GI50: > 100 µM
- TGI: >100 µM
- CC50: > 100 µM

SMILES: N=c1nc(N)c2ncn([C@@H]3O[C@H](CO)[C@@H](O)[C@H]3O)c2c(N)n1 [Compound 14-2, 4,8-Diamino-6H-6-imino-1-β-D-ribofuranosylimidazo[4,5-e][1,3]diazepine]
- GI50: 25.3 µM
- TGI: 89 µM
- CC50: > 100 µM
